In all, about 220,000 compounds went through this assay and about 16,000 (7.3%) were called active. The shares of active, inactive and inconclusive entries below differ from those in the screen. Calls follow the shape of the dose curve; as a rule, active = well fitted inhibition curve with a large enough effect (not every such curve was filed as active); inconclusive = small, poorly fitted or top-dose-only effect, or another doubt; inactive = no such curve, though single readings can be large or run the other way. No potency is given beside an inconclusive call; the fits are too rough.
target: Aldehyde dehydrogenase 1A1 (Homo sapiens) (UniProt P00352); test: qHTS Assay for Inhibitors of Aldehyde Dehydrogenase 1 (ALDH1A1); conditions: Purified ALDH1A1, NADH fluorescence, propionaldehyde substrate; series mostly up to 75.3 µM
Potency is read from the fitted curve at half-maximal effect; tags tell the direction and shape of the fitted curve.

Chain of UniProt P00352 (P00352 whole entry, looked up): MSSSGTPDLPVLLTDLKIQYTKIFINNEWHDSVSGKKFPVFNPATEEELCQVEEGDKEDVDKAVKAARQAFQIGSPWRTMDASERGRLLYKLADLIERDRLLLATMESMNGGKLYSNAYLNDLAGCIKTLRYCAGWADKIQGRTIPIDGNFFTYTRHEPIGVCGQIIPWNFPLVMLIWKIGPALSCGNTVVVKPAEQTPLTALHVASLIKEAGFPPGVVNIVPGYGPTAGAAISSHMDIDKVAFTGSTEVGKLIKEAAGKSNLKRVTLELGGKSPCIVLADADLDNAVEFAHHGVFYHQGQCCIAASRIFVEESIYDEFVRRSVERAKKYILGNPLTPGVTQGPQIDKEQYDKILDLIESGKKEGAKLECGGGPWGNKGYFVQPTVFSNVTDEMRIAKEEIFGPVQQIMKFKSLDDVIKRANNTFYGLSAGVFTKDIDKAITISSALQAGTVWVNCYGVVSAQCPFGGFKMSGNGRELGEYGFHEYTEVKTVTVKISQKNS

| Compound | Potency |
| --- | --- |
| CC1C(=O)C(C)C(c2ccc([N+](=O)[O-])cc2)NC1c1ccc([N+](=O)[O-])cc1 (stereo not given) | inactive |
| Cc1cc(C)cc(NC(=O)C2CCCN2C(=O)NC2CCCCC2)c1 (stereo not given) | inconclusive [inhibitor, single point] |
| Cc1ccc(S(=O)(=O)CC(CN2CCOCC2)N2CCOCC2)cc1 (stereo not given) | inactive |
| O=S(=O)(c1ccccc1)N1CCC(n2nnc3cc(F)ccc32)CC1 | inactive |
| CC(=O)/C(=N\Nc1cccc(Cl)c1)Sc1nnc(-c2ccccc2)n1-c1ccccc1 | inactive |
| COc1nc2ccc(C)cc2cc1-c1noc(-c2ccccc2)n1 | inactive |
| O=C(NCCN1CCOCC1)c1ccc2c(c1)N(Cc1ccccc1)C(=O)CS2 | inactive |
| Cc1ccc2nc(SCC(=O)Nc3ccc4sc(C)nc4c3)c(C#N)cc2c1 | inactive |
| C=CCN(CC=C)c1ccc(N2C(=O)C3CCCCC3C2=O)cc1[N+](=O)[O-] (stereo not given) | inconclusive [inhibitor, single point] |
| CCN(CC)CCCN1C(=O)CSC1c1ccc2c(c1)OCO2 (stereo not given) | inconclusive [inhibitor, single point] |
| c1ccc(-c2nc(NCc3ccco3)c3ccccc3n2)cc1 | inconclusive [inhibitor, single point] |
| O=C(NNC(=S)Nc1ccccc1)c1cccc(Br)c1 | active: 20 µM |
| O=C(NCc1ccco1)Nc1ccc([N+](=O)[O-])cc1 | inactive |
| N#Cc1c(-c2ccncc2)c2c([nH]c1=S)CCCC2 | inconclusive [inhibitor, single point] |
| O=C(Nc1ccc(-c2nc3ccccc3o2)cc1)c1ccc(N2C(=O)C3C4C=CC(C4)C3C2=O)cc1 (stereo not given) | inconclusive [inhibitor, partial curve] |
| COc1ccc([N+](=O)[O-])cc1NC(=O)CSc1ccc2ccccc2c1 | inconclusive [inhibitor, single point] |
| Cc1ccc2[nH]c(=S)cc(C)c2c1 | active: 3.16 µM |
| CC(=O)C1=C(c2ccccc2)NC(=S)NC1c1cc(Cl)c(OC(C)C)c(Cl)c1 (stereo not given) | active: 0.708 µM |
| CCOC(=O)c1c(NC(=O)CSc2nnnn2C)sc(C)c1-c1ccc(C)cc1 | inactive |
| COc1cccc(C(=O)NCCC2=CCCCC2)c1 | inconclusive [inhibitor, partial curve] |
| C/C(=N\NC(=S)Nc1ccccc1C)C1Cc2ccccc2C(=O)O1 (stereo not given) | inconclusive [inhibitor, single point] |
| S=c1[nH]nc(-c2ccc(Cl)cc2)n1CCCN1CCOCC1 | inactive |
| O=C(c1cc(-c2ccc(Cl)cc2Cl)on1)N1CCN(C(=O)c2ccco2)CC1 | active: 2.82 µM |
| COc1cc(C(c2c(C)[nH][nH]c2=O)c2c(C)[nH][nH]c2=O)ccc1OC(=O)c1cccc([N+](=O)[O-])c1 | inactive |
| CC(C)C(=O)NC(=S)Nc1ccc(S(=O)(=O)Nc2nccs2)cc1 | inactive |

| Compound | Potency |
| --- | --- |
| O=C(O)c1cc2c(N3CCC(Cc4ccccc4)CC3)ncnc2s1 | inconclusive [inhibitor, single point] |
| CCCCNC(=S)Nc1ccc(Oc2ccccc2)cc1 | inconclusive [inhibitor, single point] |
| CC(Nc1nc(N2CCOCC2)nc2ccccc12)c1ccccc1 (stereo not given) | inconclusive [inhibitor, partial curve] |
| O=C(/C=C/c1ccccc1[N+](=O)[O-])NCCc1ccc(F)cc1 | inconclusive [inhibitor, single point] |
| CC(C)NC(=S)Nc1c(N)[nH]c(=O)[nH]c1=O | inactive |
| O=C(CCn1c(=O)c2ccccc2n(CC(=O)NCCC2=CCCCC2)c1=O)NCc1ccco1 | active: 15.8 µM |
| CCN(c1ccccc1)S(=O)(=O)c1cc(C(=O)Oc2ccc3c(C)cc(=O)oc3c2)ccc1C | inconclusive [inhibitor, partial curve] |
| CCCOc1ccc(C(=O)NCC(c2ccco2)N(C)C)cc1 (stereo not given) | inconclusive [inhibitor, single point] |
| CC1CCCC(NC(=O)COC(=O)c2cc(S(=O)(=O)N3CCCCC3)ccc2N2CCOCC2)C1C (stereo not given) | active: 10 µM |
| O=C(OCC(=O)N1CCCCCC1)c1ccc(Cl)c(S(=O)(=O)N2CCCC2)c1 | inconclusive [inhibitor, partial curve] |
| CC(C)COc1ccc(C(=O)Nc2sc3c(c2C(=O)O)CC(C)(C)OC3)cc1 | active: 20 µM |
| CCOC(=O)c1cnn(-c2nc3c(C)cccc3s2)c1C(F)(F)F | inconclusive [inhibitor, partial curve] |
| CCN(CC)S(=O)(=O)c1ccc(N=Cc2c(C)c(C#N)c(=O)n(C)c2O)cc1 | inconclusive [inhibitor, partial curve] |
| CN1CC=C2C(C#N)=C(N)C(C#N)(C#N)C(c3cccc(Cl)c3Cl)C2C1 (stereo not given) | inconclusive [inhibitor, single point] |
| O=C(c1cccc(F)c1)N1CCC[C@@]2(CCN(c3cccc(-c4ccccc4)c3)C2)C1 | inconclusive [inhibitor, single point] |
| CCOC(=O)N1CCN(C(=O)c2ccc3c(c2)sc2nc(-c4ccc(OC)cc4)cn23)CC1 | inconclusive [inhibitor, single point] |
| O=C(NC(=S)N1CCN(c2ccccn2)CC1)c1ccccc1 | inactive |
| Cc1cc(=O)[nH]c(SCCOc2ccc(OC(C)C)cc2)n1 | inconclusive [inhibitor, partial curve, poor fit] |
| COc1ccc(-c2nc3ccccn3c2CN2CCN(c3ccccc3F)CC2)cc1 | inconclusive [inhibitor, single point] |
| CCOC(=O)c1[nH]c2ccc(OCC)cc2c1NC(=O)CN1CCN(c2ccccc2)CC1 | inconclusive [inhibitor, partial curve] |
| COc1ccc(Cn2nnnc2C(c2cc3cc(C)ccc3[nH]c2=O)N2CCN(C)CC2)cc1 (stereo not given) | inactive |
| Cc1ccccc1-n1c(C)nnc1SCC(=O)NNC(=O)c1ccccc1 | inactive |
| COc1ccc(Br)c(C(=O)NC(C)(C)CO)c1 | inactive |
| O=C(c1ccccc1)c1c[nH]c(C(=O)C(Cl)(Cl)Cl)c1 | active: 3.55 µM |
| Cc1noc(C)c1-c1nc(CS(=O)(=O)c2ccc(F)cc2)no1 | inactive |

| Compound | Potency |
| --- | --- |
| CC(C)OCCCNCC(O)c1ccccc1 (stereo not given) | inconclusive [inhibitor, single point] |
| Cc1ccc(CSc2nnc(-c3ccco3)o2)cc1 | inactive |
| COc1cc2[nH]c(=S)nc(NC3CCCCCC3)c2cc1OC | inactive |
| COCCn1c(-c2ccc(OC(F)(F)C(F)C(F)(F)F)cc2)nc2c1c(=O)[nH]c(=O)n2CC(C)C (stereo not given) | inconclusive [inhibitor, single point] |
| Cc1cc(C)n2c(SCC(=O)Nc3ncc(C(F)(F)F)cc3Cl)nnc2n1 | active: 12.6 µM |
| COC(=O)Cn1c(=NC(=O)c2cc(OC)cc(OC)c2)sc2cc(OC)ccc21 | inconclusive [inhibitor, partial curve] |
| COc1ccc(OC)c(C2=NNC(=NCc3ccc4c(c3)OCO4)SC2)c1 | inconclusive [inhibitor, partial curve] |
| COc1ccc(CCNc2c([N+](=O)[O-])c(=O)oc3ccccc23)cc1OC | inactive |
| CCOc1ccc(CNc2nc3ccccc3n2CCN2CCOCC2)cc1 | inconclusive [inhibitor, single point] |
| Cc1ccc(-n2ncc3c(N4CCN(c5ccccc5)CC4)ncnc32)c(C)c1 | inconclusive [inhibitor, full curve] |
| O=C1NC(c2ccc3c(c2)OCO3)Oc2ccccc21 (stereo not given) | inconclusive [inhibitor, single point] |
| CC(C)c1ccc(C(=O)NC(=S)NCc2cccnc2)cc1 | active: 28.2 µM |
| CCn1c(COc2ccccc2C)nnc1SCc1nc2ccccc2c(=O)[nH]1 | inactive |
| O=C(C1CCCCC1)N1CCN=C1SCc1cccnc1 | inconclusive [inhibitor, single point] |
| NS(=O)(=O)c1ccc(CCNC(=O)COC(=O)CC(c2ccccc2)c2ccccc2)cc1 | inactive |
| COc1ccc(N(Cc2ccccc2)C(=O)CSc2nnc(Cn3nnc4ccccc43)o2)cc1 | inconclusive [inhibitor, single point] |
| CC(=O)N(C)c1nnc(-c2cnccn2)s1 | inconclusive [inhibitor, single point] |
| COc1cc(OC)c(NS(=O)(=O)c2coc(C(N)=O)c2)cc1Cl | inactive |
| Cc1ccc(-n2cc(CNCCc3ncc(C)[nH]3)c(-c3ccc(F)cc3)n2)cc1 | inactive |
| COc1ccccc1NC(=O)/C=C/c1ccc(OC)c(S(=O)(=O)N2CCOCC2)c1 | inconclusive [inhibitor, single point] |
| CC(=O)CCc1ccc(OC(=O)c2cccnc2)cc1 | inactive |
| CCCn1c(SCC(=O)Nc2cc(Cl)ccc2OC)n[nH]c1=O | inconclusive [inhibitor, partial curve, poor fit] |
| COc1ccc(S(=O)(=O)N2CCOCC2)cc1NC(=O)COC(=O)c1ccc(C)s1 | inconclusive [inhibitor, single point] |
| C(=N\Nc1nc2ccccc2s1)/c1ccc2c(c1)OCO2 | inactive |
| CC(=Nc1ccc(C)c(C)c1)C1=C(O)CCC1=O | inconclusive [inhibitor, single point] |
